Publication PMC9911399, “Two distinct binding modes provide the RNA-binding protein RbFox with extraordinary sequence specificity”
Numbering of substitutions follows the chain as printed; changes in the protein carry UniProt numbers. This is one part of the list.

B1: CGGUUGC (DNA:RNA)
RNA: GGGAGACCGGAAUUCAGAUUGUCCCGGUUGCUUAAAUCCCGUCGUAGCCACCA
DNA 1: CAATCTGAATTCCGGTCTCCC
DNA 2: TGGTGGCTACGACGGGATT
B2: CGUAUGC (DNA:RNA)
RNA: B1 RNA with G27U, U28A
DNA 1: CAATCTGAATTCCGGTCTCCC
DNA 2: TGGTGGCTACGACGGGATT
B3: AGAUCUC (DNA:RNA)
RNA: B1 RNA with C25A, G27A, U29C, G30U
DNA 1: CAATCTGAATTCCGGTCTCCC
DNA 2: TGGTGGCTACGACGGGATT
B4: GCGUGGG (DNA:RNA)
RNA: B1 RNA with C25G, G26C, U29G, C31G
DNA 1: CAATCTGAATTCCGGTCTCCC
DNA 2: TGGTGGCTACGACGGGATT
B5: GUUGGCU (DNA:RNA)
RNA: GGGAGACCGGAAUUCAGAUUGUCCGUUGGCUUUAAAUCCCGUCGUAGCCACCA
DNA 1: CAATCTGAATTCCGGTCTCCC
DNA 2: TGGTGGCTACGACGGGATT
B6: AAGUUUG (DNA:RNA)
RNA: B1 RNA with C25A, G26A, G30U, C31G
DNA 1: CAATCTGAATTCCGGTCTCCC
DNA 2: TGGTGGCTACGACGGGATT
B7: GACUGAA (DNA:RNA)
RNA: B5 RNA with U26A, U27C, G28U, C30A, U31A
DNA 1: CAATCTGAATTCCGGTCTCCC
DNA 2: TGGTGGCTACGACGGGATT
B8: UGACAAC (DNA:RNA)
RNA: B1 RNA with C25U, G27A, U28C, U29A, G30A
DNA 1: CAATCTGAATTCCGGTCTCCC
DNA 2: TGGTGGCTACGACGGGATT
B9: UCUUGGA (DNA:RNA)
RNA: B1 RNA with C25U, G26C, G27U, U29G, C31A
DNA 1: CAATCTGAATTCCGGTCTCCC
DNA 2: TGGTGGCTACGACGGGATT
B10: AAGAAUU (DNA:RNA)
RNA: B1 RNA with C25A, G26A, U28A, U29A, G30U, C31U
DNA 1: CAATCTGAATTCCGGTCTCCC
DNA 2: TGGTGGCTACGACGGGATT
B11: GUACACG (DNA:RNA)
RNA: B5 RNA with U27A, G28C, G29A, U31G
DNA 1: CAATCTGAATTCCGGTCTCCC
DNA 2: TGGTGGCTACGACGGGATT
B12: AUAGAGC (DNA:RNA)
RNA: B1 RNA with C25A, G26U, G27A, U28G, U29A
DNA 1: CAATCTGAATTCCGGTCTCCC
DNA 2: TGGTGGCTACGACGGGATT
B13: AAUUCUU (DNA:RNA)
RNA: B5 RNA with G25A, U26A, G28U, G29C, C30U
DNA 1: CAATCTGAATTCCGGTCTCCC
DNA 2: TGGTGGCTACGACGGGATT
B14: AAGUCCA (DNA:RNA)
RNA: B1 RNA with C25A, G26A, U29C, G30C, C31A
DNA 1: CAATCTGAATTCCGGTCTCCC
DNA 2: TGGTGGCTACGACGGGATT
B15: CUUCAAU (DNA:RNA)
RNA: B5 RNA with G25C, G28C, G29A, C30A
DNA 1: CAATCTGAATTCCGGTCTCCC
DNA 2: TGGTGGCTACGACGGGATT
B16: AGUUUCU (DNA:RNA)
RNA: B1 RNA with C25A, G27U, G30C, C31U
DNA 1: CAATCTGAATTCCGGTCTCCC
DNA 2: TGGTGGCTACGACGGGATT
B17: UCCCGCG (DNA:RNA)
RNA: B5 RNA with G25U, U26C, U27C, G28C, U31G
DNA 1: CAATCTGAATTCCGGTCTCCC
DNA 2: TGGTGGCTACGACGGGATT
B18: UGUCUGG (DNA:RNA)
RNA: B1 RNA with C25U, G27U, U28C, C31G
DNA 1: CAATCTGAATTCCGGTCTCCC
DNA 2: TGGTGGCTACGACGGGATT
B19: GUAACGU (DNA:RNA)
RNA: B5 RNA with U27A, G28A, G29C, C30G
DNA 1: CAATCTGAATTCCGGTCTCCC
DNA 2: TGGTGGCTACGACGGGATT
B20: AAAUCUA (DNA:RNA)
RNA: B1 RNA with C25A, G26A, G27A, U29C, G30U, C31A
DNA 1: CAATCTGAATTCCGGTCTCCC
DNA 2: TGGTGGCTACGACGGGATT

Target: T1, RBFOX1 RRM RbFoxmut (Fox-RRM*) (Homo sapiens, UniProt Q9NWB1 109-208, R118D;E147R;N151S;E152T)
T1 sequence: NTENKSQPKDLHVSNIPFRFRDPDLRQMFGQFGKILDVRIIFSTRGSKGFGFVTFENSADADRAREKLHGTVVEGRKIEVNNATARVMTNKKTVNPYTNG
Test: EMSA; HiTS-Eq, 1 nM pool, 10 min; buffer printed only for the single-RNA assays: 10 mM Tris pH 7.5, 150 mM NaCl, 3.4 mM EDTA, 0.001% NP-40, 30 C
Settings: tags: His6 N-terminal (pET28a); label: 5' 32P
Procedure, shortened: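 Purified RbFox RRM, wild type or mutant, was incubated for 10 min in 50 µL with 1 nM of a 5′-radiolabelled RNA pool carrying 7 randomized nucleotides, whose flanks were annealed to DNA oligonucleotides, over a series of increasing protein concentrations. Unbound RNA was resolved on 8% native PAGE, cut out, reverse-transcribed, barcoded by PCR and sequenced on an Illumina HiSeq 2500. Relative association constants were derived from changes in read counts for each RNA species versus the control reaction and normalised to the cognate motif.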

First: B1
Second: B2
The binding signal of the first is lower: 0.118 KA relative to UGCAUGU for the first, 0.325 KA relative to UGCAUGU for the second.

First: B3
Second: B4
The binding signal of the first is lower: 0.0652 KA relative to UGCAUGU for the first, 0.0842 KA relative to UGCAUGU for the second.

First: B5
Second: B6
The binding signal of the first is lower: 0.121 KA relative to UGCAUGU for the first, 0.26 KA relative to UGCAUGU for the second.

First: B7
Second: B8
The binding signal of the first is higher: 0.123 KA relative to UGCAUGU for the first, 0.0518 KA relative to UGCAUGU for the second.

Compared with B9, B10 is higher in binding signal: 0.0661 KA relative to UGCAUGU for the first, 0.108 KA relative to UGCAUGU for the second.

Compared with B11, B12 is higher in binding signal: 0.118 KA relative to UGCAUGU for the first, 0.121 KA relative to UGCAUGU for the second.

First: B13
Second: B14
The binding signal of the first is lower: 0.0931 KA relative to UGCAUGU for the first, 0.0963 KA relative to UGCAUGU for the second.

Compared with B15, B16 is higher in binding signal: 0.0426 KA relative to UGCAUGU for the first, 0.0838 KA relative to UGCAUGU for the second.

First: B17
Second: B18
The binding signal of the first is lower: 0.112 KA relative to UGCAUGU for the first, 0.196 KA relative to UGCAUGU for the second.

First: B19
Second: B20
The binding signal of the first is higher: 0.105 KA relative to UGCAUGU for the first, 0.088 KA relative to UGCAUGU for the second.
